In the experiment the target is T1, SARS-COV-2病毒N蛋白 (nucleocapsid protein) (SARS-COV-2).
T1 construct: Recombinant N protein; also called 核衣壳蛋白
Kind of experiment: ELISA, N protein coated at 2 μg/ml on the microplate. For orientation: ELISA stands for enzyme-linked immunosorbent assay.

B1: 1A6重组抗体 (1A6 single-chain antibody fused to human IgG1 Fc fragment) (Fc fusion)
chain: EVKLKESGAELVKPGASVKLSCTASGFNIKDTYMHWVKQRPGQGLEWIGYINPSTGYTEYNQKFKDKATLTADKSSSTAYMQLSSLTSEDSAVYYCARDALGWYFDVWGAGTLVTVSTGGGGSGGGGSGGGGSDVVMTQSHKFMSTSVGDRVSVTCKASQNVGTNVAWYQQKPGQFPKALIYSASYRYSGVPDRFTGSGSGTDFTLTISNVQSEDLAEYFCQQYNSYPLTFGAGTKLEIK[letters of human IgG1 Fc not shown]
notes: also called 1A6 recombinant antibody
With B1, the EC50 – broadly, the concentration at which the effect is half-maximal – came to 1.34 ng/mL.

Source of the values: CN111875700A (CUSABIO BIOTECH CO LTD, dated 2020).
